#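 Where inhibition never reached the appropriate level, the endpoint shown equals the highest concentration tested. Otherwise, values were interpolated linearly from a five-concentration, 48-hour dose response in 96-well plates. The concentration for 50% growth inhibition is given as GI50.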 Some entries of the source have several records that differ or are many. The list is limited to them. The source may hold further records. For part of these data: The tests behind the records often covered other concentration ranges, not given here; some values may only mark the edge of a range.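 The concentration for full growth arrest is given as TGI.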 For part of these data: Values that stand side by side are repeated measurements in other runs, samples, wells, individuals or studies. Records carry a tag for their origin. Letters count within one entry.
# How the values were obtained:
# Assay in all cases: NCI tumour cell line growth inhibition, 48 h
# PC-3 prostate = test system: PC-3 prostate
# SK-OV-3 ovarian = test system: SK-OV-3 ovarian
# SK-MEL-28 melanoma = test system: SK-MEL-28 melanoma
# OVCAR-4 ovarian = test system: OVCAR-4 ovarian
# RPMI-8226 leukemia = test system: RPMI-8226 leukemia
# A549 NSCLC = test system: A549 NSCLC
# OVCAR-8 ovarian = test system: OVCAR-8 ovarian
# SW-620 colon = test system: SW-620 colon
# SF-268 CNS = test system: SF-268 CNS
# HCT-116 colon = test system: HCT-116 colon
# HT29 colon = test system: HT29 colon
# HOP-92 NSCLC = test system: HOP-92 NSCLC
# NCI-H460 lung = test system: NCI-H460 lung
# A498 renal = test system: A498 renal
# MDA-MB-231 breast = test system: MDA-MB-231 breast
# SN12C renal = test system: SN12C renal
# NCI-H226 lung = test system: NCI-H226 lung
# NCI-H23 lung = test system: NCI-H23 lung
# HCT-15 colon = test system: HCT-15 colon
# NCI-H522 lung = test system: NCI-H522 lung
# SF-295 CNS = test system: SF-295 CNS
# MDA-MB-435 = test system: MDA-MB-435
# HS 578T breast = test system: HS 578T breast
# OVCAR-3 ovarian = test system: OVCAR-3 ovarian
# IGROV1 ovarian = test system: IGROV1 ovarian
# U251 CNS = test system: U251 CNS
# BT-549 breast = test system: BT-549 breast
# SK-MEL-2 melanoma = test system: SK-MEL-2 melanoma
# M14 melanoma = test system: M14 melanoma
# MALME-3M melanoma = test system: MALME-3M melanoma
# COLO 205 colon = test system: COLO 205 colon
# SR leukemia = test system: SR leukemia
# EKVX NSCLC = test system: EKVX NSCLC
# KM12 colon = test system: KM12 colon
# SK-MEL-5 melanoma = test system: SK-MEL-5 melanoma
# HL-60(TB) leukemia = test system: HL-60(TB) leukemia
# SF-539 CNS = test system: SF-539 CNS
# T-47D breast = test system: T-47D breast
# SNB-19 CNS = test system: SNB-19 CNS
smiles,measurement,setting,value
COc1ccc([C@@]23Oc4cc(OC)cc(OC)c4[C@]2(O)[C@H](O)[C@H](C(N)=O)[C@H]3c2ccccc2)cc1,TGI,PC-3 prostate,97.7 nM [sample A] and 1.63 µM [sample B]
same,TGI,SK-OV-3 ovarian,> 100 µM [sample A] and 434 nM [sample B]
same,TGI,SK-MEL-28 melanoma,> 39.5 µM [sample A] and 71.2 nM [sample B]
same,TGI,OVCAR-4 ovarian,21.6 µM [sample A] and 200 nM [sample B]
same,TGI,RPMI-8226 leukemia,1.58 µM [sample A] and 127 nM [sample B]
same,TGI,A549 NSCLC,> 51.2 µM [sample A] and 1.04 µM [sample B]
same,TGI,OVCAR-8 ovarian,< 43 nM [sample A] and 562 nM [sample B]
same,TGI,SW-620 colon,> 100 µM [sample A] and 221 nM [sample B]
CC(=O)c1cc(C(=O)c2ccc3c(c2)Sc2ccccc2N3)n2ccccc12,GI50,SF-268 CNS,7.26 nM and 488 nM
same,TGI,HCT-116 colon,282 nM and 5.49 µM
same,TGI,HT29 colon,335 nM and 3.45 µM
same,GI50,HOP-92 NSCLC,130 nM and 3.32 nM
same,TGI,NCI-H460 lung,157 nM and > 33.2 µM
same,TGI,A498 renal,518 nM and 7.38 µM
same,TGI,MDA-MB-231 breast,432 nM and > 33.2 µM
same,GI50,SK-MEL-28 melanoma,24.2 nM and 502 nM
same,GI50,SN12C renal,8.44 nM and 1.2 µM
same,GI50,NCI-H226 lung,87.3 nM and 931 nM
COc1cc2c(c(OC)c1OC)-c1ccc(SC)c(=O)cc1[C@@H](O)CC2,TGI,NCI-H23 lung,29.8 nM and > 100 µM
same,TGI,HCT-15 colon,523 nM and > 100 µM
same,TGI,NCI-H522 lung,23.9 nM and > 100 µM
same,TGI,SF-295 CNS,6.7 nM and > 100 µM
same,TGI,MDA-MB-435,0.506 nM and > 100 µM
same,TGI,SF-268 CNS,130 nM and > 100 µM
same,TGI,HS 578T breast,224 nM and > 100 µM
same,TGI,PC-3 prostate,232 nM and > 100 µM
same,TGI,SK-OV-3 ovarian,25.2 nM and > 100 µM
same,TGI,OVCAR-3 ovarian,> 100 µM [1 test] and 21.2 nM [mean of 2 tests]
same,TGI,IGROV1 ovarian,119 nM and > 100 µM
same,TGI,U251 CNS,117 nM and > 100 µM
same,TGI,BT-549 breast,549 nM and > 100 µM
same,TGI,SK-MEL-2 melanoma,67.9 nM and > 100 µM
same,TGI,M14 melanoma,586 nM and > 100 µM
same,TGI,MALME-3M melanoma,0.92 nM and > 100 µM
same,TGI,COLO 205 colon,8.34 nM and > 100 µM
same,TGI,SR leukemia,16.2 nM and > 100 µM
same,TGI,EKVX NSCLC,< 101 nM and > 100 µM
same,GI50,RPMI-8226 leukemia,60.2 nM [1 test] and 1.06 nM [mean of 2 tests]
same,TGI,KM12 colon,17.2 nM and > 100 µM
same,TGI,SK-MEL-5 melanoma,10.9 nM and > 100 µM
same,TGI,OVCAR-8 ovarian,224 nM and > 100 µM
same,TGI,HL-60(TB) leukemia,0.767 nM and 43 µM
same,TGI,SF-539 CNS,51.4 nM and > 100 µM
O=[N+]([O-])c1cc([N+](=O)[O-])c(Nn2c3ccccc3c3ccccc32)c([N+](=O)[O-])c1,TGI,HS 578T breast,> 100 µM [sample A] and 8.47 µM [sample B]
same,TGI,T-47D breast,> 100 µM [sample A] and 6.89 µM [sample B]
same,TGI,M14 melanoma,2.98 µM [sample A] and > 100 µM [sample B]
same,TGI,COLO 205 colon,382 nM [sample A] and 13.1 µM [sample B]
same,TGI,OVCAR-8 ovarian,> 100 µM [sample A] and 9.91 µM [sample B]
same,TGI,HL-60(TB) leukemia,511 nM [sample A] and > 100 µM [sample B]
CCCCCCCCCC[C@H](O)[C@H](O)CC[C@@H](O)[C@H]1CC[C@@H]([C@H]2CC[C@H](CCCCCCC[C@@H](O)CC3=C[C@H](C)OC3=O)O2)O1,TGI,NCI-H23 lung,9.32 µM and > 100 µM
same,TGI,MDA-MB-435,4.84 µM and > 100 µM
same,TGI,IGROV1 ovarian,6.21 µM and 72.8 µM
same,TGI,SNB-19 CNS,5.67 µM and > 100 µM
same,TGI,BT-549 breast,2.08 µM and > 100 µM
same,TGI,SK-MEL-2 melanoma,4.29 µM and 89.6 µM
same,TGI,EKVX NSCLC,7.15 µM and > 100 µM
same,TGI,NCI-H226 lung,8.07 µM and > 100 µM

# Source: PubChem BioAssay (NCI)
